These results are taken from article PMC9911399, “Two distinct binding modes provide the RNA-binding protein RbFox with extraordinary sequence specificity”.

T1: RBFOX1 RRM (Homo sapiens, UniProt Q9NWB1 109-208)
T1 sequence: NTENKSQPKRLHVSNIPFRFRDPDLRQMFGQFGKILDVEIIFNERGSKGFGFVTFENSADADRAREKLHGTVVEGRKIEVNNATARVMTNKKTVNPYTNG

B1: ACAGAGU (DNA:RNA)
RNA: GGGAGACCGGAAUUCAGAUUGUCCACAGAGUUUAAAUCCCGUCGUAGCCACCA
DNA 1: CAATCTGAATTCCGGTCTCCC
DNA 2: TGGTGGCTACGACGGGATT
B2: UCUCUGA (DNA:RNA)
RNA: B1 RNA with A25U, A27U, G28C, A29U, U31A
DNA 1: CAATCTGAATTCCGGTCTCCC
DNA 2: TGGTGGCTACGACGGGATT
B3: GCCAAUU (DNA:RNA)
RNA: B1 RNA with A25G, A27C, G28A, G30U
DNA 1: CAATCTGAATTCCGGTCTCCC
DNA 2: TGGTGGCTACGACGGGATT
B4: GUUGCUC (DNA:RNA)
RNA: B1 RNA with A25G, C26U, A27U, A29C, G30U, U31C
DNA 1: CAATCTGAATTCCGGTCTCCC
DNA 2: TGGTGGCTACGACGGGATT
B5: CUUUGGC (DNA:RNA)
RNA: B1 RNA with A25C, C26U, A27U, G28U, A29G, U31C
DNA 1: CAATCTGAATTCCGGTCTCCC
DNA 2: TGGTGGCTACGACGGGATT
B6: UGUGAUU (DNA:RNA)
RNA: B1 RNA with A25U, C26G, A27U, G30U
DNA 1: CAATCTGAATTCCGGTCTCCC
DNA 2: TGGTGGCTACGACGGGATT
B7: AGGUUGA (DNA:RNA)
RNA: B1 RNA with C26G, A27G, G28U, A29U, U31A
DNA 1: CAATCTGAATTCCGGTCTCCC
DNA 2: TGGTGGCTACGACGGGATT
B8: GAAGCAA (DNA:RNA)
RNA: B1 RNA with A25G, C26A, A29C, G30A, U31A
DNA 1: CAATCTGAATTCCGGTCTCCC
DNA 2: TGGTGGCTACGACGGGATT
B9: GCGAAGC (DNA:RNA)
RNA: B1 RNA with A25G, A27G, G28A, U31C
DNA 1: CAATCTGAATTCCGGTCTCCC
DNA 2: TGGTGGCTACGACGGGATT
B10: CAGGUCU (DNA:RNA)
RNA: B1 RNA with A25C, C26A, A27G, A29U, G30C
DNA 1: CAATCTGAATTCCGGTCTCCC
DNA 2: TGGTGGCTACGACGGGATT
B11: CUUCGCA (DNA:RNA)
RNA: GGGAGACCGGAAUUCAGAUUGUCCCUUCGCAUUAAAUCCCGUCGUAGCCACCA
DNA 1: CAATCTGAATTCCGGTCTCCC
DNA 2: TGGTGGCTACGACGGGATT
B12: UCAACCC (DNA:RNA)
RNA: B1 RNA with A25U, G28A, A29C, G30C, U31C
DNA 1: CAATCTGAATTCCGGTCTCCC
DNA 2: TGGTGGCTACGACGGGATT
B13: CAUUACU (DNA:RNA)
RNA: B11 RNA with U26A, C28U, G29A, A31U
DNA 1: CAATCTGAATTCCGGTCTCCC
DNA 2: TGGTGGCTACGACGGGATT
B14: CAAGGUA (DNA:RNA)
RNA: B11 RNA with U26A, U27A, C28G, C30U
DNA 1: CAATCTGAATTCCGGTCTCCC
DNA 2: TGGTGGCTACGACGGGATT
B15: GUAUGAA (DNA:RNA)
RNA: B11 RNA with C25G, U27A, C28U, C30A
DNA 1: CAATCTGAATTCCGGTCTCCC
DNA 2: TGGTGGCTACGACGGGATT
B16: GACGUCA (DNA:RNA)
RNA: B11 RNA with C25G, U26A, U27C, C28G, G29U
DNA 1: CAATCTGAATTCCGGTCTCCC
DNA 2: TGGTGGCTACGACGGGATT
B17: AAGUCUU (DNA:RNA)
RNA: B1 RNA with C26A, A27G, G28U, A29C, G30U
DNA 1: CAATCTGAATTCCGGTCTCCC
DNA 2: TGGTGGCTACGACGGGATT
B18: GUACGGA (DNA:RNA)
RNA: B11 RNA with C25G, U27A, C30G
DNA 1: CAATCTGAATTCCGGTCTCCC
DNA 2: TGGTGGCTACGACGGGATT
B19: GGCGCGU (DNA:RNA)
RNA: B1 RNA with A25G, C26G, A27C, A29C
DNA 1: CAATCTGAATTCCGGTCTCCC
DNA 2: TGGTGGCTACGACGGGATT
B20: GGUCUGU (DNA:RNA)
RNA: B1 RNA with A25G, C26G, A27U, G28C, A29U
DNA 1: CAATCTGAATTCCGGTCTCCC
DNA 2: TGGTGGCTACGACGGGATT

Positions count from the first letter of the chain named. The list shows a part of the results.

The target of the test is T1, RBFOX1 RRM. Put plainly: EMSA; HiTS-Eq, 1 nM pool, 10 min; buffer printed only for the single-RNA assays: 10 mM Tris pH 7.5, 150 mM NaCl, 3.4 mM EDTA, 0.001% NP-40, 30 C. The conditions noted are these: tags: His6 N-terminal (pET28a); label: 5' 32P. In short, it runs like this:
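Purified RbFox RRM, wild type or mutant, was incubated for 10 min in 50 µL with 1 nM of a 5′-radiolabelled RNA pool carrying 7 randomized nucleotides, whose flanks were annealed to DNA oligonucleotides, over a series of increasing protein concentrations. Unbound RNA was resolved on 8% native PAGE, cut out, reverse-transcribed, barcoded by PCR and sequenced on an Illumina HiSeq 2500. Relative association constants were derived from changes in read counts for each RNA species versus the control reaction and normalised to the cognate motif.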
Background: In EMSA bound probe runs differently from free probe, usually more slowly.
Turning to B1, the binding signal is 0.00631 KA relative to UGCAUGU.
The value for B2 was 0.0157 KA relative to UGCAUGU.
For B3, the binding signal was 0.00519 KA relative to UGCAUGU.
The same measure for B4: 0.0265 KA relative to UGCAUGU; for B5: 0.0196 KA relative to UGCAUGU; for B6: 0.0207 KA relative to UGCAUGU.
On to B7, for which the binding signal was 0.0183 KA relative to UGCAUGU.
The same measure for B8: 0.0115 KA relative to UGCAUGU; for B9: 0.0105 KA relative to UGCAUGU; for B10: 0.013 KA relative to UGCAUGU.
The same measure for B11: 0.0119 KA relative to UGCAUGU; for B12: 0.00038 KA relative to UGCAUGU.
As for B13, the binding signal was 0.00134 KA relative to UGCAUGU.
As to B14, the binding signal was 0.00475 KA relative to UGCAUGU.
As for B15, the binding signal was 0.0136 KA relative to UGCAUGU.
Turning to B16, the binding signal is 0.00822 KA relative to UGCAUGU.
With B17, the binding signal is 0.00703 KA relative to UGCAUGU.
B18: the binding signal was 0.00829 KA relative to UGCAUGU.
Turning to B19, the binding signal is 0.0157 KA relative to UGCAUGU.
The value for B20 was 0.0145 KA relative to UGCAUGU.
